{"sequences": {"note": "By UniProt entry, the sequences of proteins in these tests, tags left out. Where a name states a change or a piece, a line headed by the entry shows the natural chain unless it says otherwise. Chains listed by the source or under a name are the forms on record and can include a tag or linker. Residues count along the entry.", "UniProt P11021, residues 19-654": "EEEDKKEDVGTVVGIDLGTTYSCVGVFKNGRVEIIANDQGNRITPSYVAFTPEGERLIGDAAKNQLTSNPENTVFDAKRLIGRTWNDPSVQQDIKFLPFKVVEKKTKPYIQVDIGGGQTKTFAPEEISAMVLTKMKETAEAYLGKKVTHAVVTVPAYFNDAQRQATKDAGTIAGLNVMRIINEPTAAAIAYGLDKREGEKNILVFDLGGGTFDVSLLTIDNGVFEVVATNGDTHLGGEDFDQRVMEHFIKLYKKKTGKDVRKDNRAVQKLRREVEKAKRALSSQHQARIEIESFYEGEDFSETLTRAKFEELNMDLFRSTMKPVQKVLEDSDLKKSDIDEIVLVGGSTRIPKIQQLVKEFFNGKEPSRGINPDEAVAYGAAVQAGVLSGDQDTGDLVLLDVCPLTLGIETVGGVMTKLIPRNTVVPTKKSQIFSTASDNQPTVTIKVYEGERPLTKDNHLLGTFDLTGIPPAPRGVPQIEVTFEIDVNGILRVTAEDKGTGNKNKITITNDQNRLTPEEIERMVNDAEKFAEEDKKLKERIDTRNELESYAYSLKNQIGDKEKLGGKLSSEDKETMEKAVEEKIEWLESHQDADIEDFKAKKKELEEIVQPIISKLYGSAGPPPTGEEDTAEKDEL", "UniProt P10275": "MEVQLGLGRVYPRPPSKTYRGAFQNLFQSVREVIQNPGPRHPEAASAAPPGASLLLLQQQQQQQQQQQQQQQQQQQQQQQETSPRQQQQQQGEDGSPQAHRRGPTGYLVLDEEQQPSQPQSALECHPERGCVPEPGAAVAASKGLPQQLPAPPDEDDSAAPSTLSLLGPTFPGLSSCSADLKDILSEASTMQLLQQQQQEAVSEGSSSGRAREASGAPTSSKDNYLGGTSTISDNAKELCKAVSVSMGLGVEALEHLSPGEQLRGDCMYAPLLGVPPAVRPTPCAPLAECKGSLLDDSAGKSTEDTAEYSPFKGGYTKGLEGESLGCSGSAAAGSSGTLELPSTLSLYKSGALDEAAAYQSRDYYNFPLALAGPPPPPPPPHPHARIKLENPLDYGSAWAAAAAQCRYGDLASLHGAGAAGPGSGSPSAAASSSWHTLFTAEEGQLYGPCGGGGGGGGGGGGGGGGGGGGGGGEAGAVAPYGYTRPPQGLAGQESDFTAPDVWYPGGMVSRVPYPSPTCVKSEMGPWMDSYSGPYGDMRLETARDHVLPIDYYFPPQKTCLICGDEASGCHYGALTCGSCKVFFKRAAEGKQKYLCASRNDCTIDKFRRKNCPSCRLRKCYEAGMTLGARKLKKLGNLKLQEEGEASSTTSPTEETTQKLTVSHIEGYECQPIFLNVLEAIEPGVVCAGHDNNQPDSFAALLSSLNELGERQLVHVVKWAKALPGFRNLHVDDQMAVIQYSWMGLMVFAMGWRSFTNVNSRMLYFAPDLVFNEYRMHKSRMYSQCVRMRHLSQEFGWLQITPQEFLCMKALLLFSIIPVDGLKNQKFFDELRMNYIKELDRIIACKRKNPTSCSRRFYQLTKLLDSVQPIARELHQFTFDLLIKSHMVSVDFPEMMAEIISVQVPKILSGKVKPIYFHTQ", "Androgen receptor splice variant 7 (AR-V7) (human (endogenous in 22Rv1)) (P10275-3, form named)": "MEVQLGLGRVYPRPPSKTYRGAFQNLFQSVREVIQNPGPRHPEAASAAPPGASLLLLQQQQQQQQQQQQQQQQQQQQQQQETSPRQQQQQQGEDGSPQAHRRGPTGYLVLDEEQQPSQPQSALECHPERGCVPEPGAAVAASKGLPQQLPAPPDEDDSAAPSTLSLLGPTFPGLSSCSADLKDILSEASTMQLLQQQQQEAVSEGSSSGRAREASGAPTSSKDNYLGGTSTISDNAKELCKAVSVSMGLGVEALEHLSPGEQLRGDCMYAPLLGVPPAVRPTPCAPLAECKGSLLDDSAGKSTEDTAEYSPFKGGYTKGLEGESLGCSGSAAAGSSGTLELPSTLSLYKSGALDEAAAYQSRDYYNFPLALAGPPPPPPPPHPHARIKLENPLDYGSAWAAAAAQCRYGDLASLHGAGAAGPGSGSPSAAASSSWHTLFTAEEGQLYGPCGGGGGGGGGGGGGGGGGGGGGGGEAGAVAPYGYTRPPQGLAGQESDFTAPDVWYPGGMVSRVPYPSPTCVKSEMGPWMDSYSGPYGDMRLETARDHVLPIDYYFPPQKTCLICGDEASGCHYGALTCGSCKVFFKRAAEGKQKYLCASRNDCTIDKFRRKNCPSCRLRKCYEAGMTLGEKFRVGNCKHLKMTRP", "UniProt Q9UNE7": "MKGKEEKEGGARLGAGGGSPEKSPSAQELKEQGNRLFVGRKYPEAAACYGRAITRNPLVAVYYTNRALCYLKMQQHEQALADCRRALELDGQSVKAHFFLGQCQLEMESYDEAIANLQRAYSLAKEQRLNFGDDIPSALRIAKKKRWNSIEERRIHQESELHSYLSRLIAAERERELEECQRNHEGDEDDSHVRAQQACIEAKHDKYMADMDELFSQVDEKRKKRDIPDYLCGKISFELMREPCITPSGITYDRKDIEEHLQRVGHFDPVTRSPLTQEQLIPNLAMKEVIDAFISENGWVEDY", "UniProt Q00987": "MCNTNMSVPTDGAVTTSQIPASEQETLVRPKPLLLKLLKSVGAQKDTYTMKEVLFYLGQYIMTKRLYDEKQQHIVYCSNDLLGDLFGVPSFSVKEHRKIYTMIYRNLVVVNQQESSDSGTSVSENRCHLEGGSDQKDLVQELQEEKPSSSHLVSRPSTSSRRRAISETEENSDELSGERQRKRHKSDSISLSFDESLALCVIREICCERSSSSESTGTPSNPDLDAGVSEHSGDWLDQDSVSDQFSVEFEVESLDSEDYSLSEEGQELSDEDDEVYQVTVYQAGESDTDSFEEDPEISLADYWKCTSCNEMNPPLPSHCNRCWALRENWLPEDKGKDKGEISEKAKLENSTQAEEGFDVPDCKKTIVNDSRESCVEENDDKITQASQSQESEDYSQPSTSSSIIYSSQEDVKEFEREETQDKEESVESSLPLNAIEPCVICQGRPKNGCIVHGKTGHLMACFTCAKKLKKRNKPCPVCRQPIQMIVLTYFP"}, "source": "paper PMC7069092", "key": {"[1]": {"biological_target": "glucose-regulated protein 78kD (GRP78, also known as BiP) (human (endogenous in 22Rv1)) (UniProt P11021)", "assay": "co-IP; 22Rv1 cells, endogenous GRP78 with SIAH2, STUB1 or MDM2; precipitating antibody not stated"}, "[2]": {"biological_target": "glucose-regulated protein 78kD (GRP78, also known as BiP) (human (endogenous in 22Rv1)) (UniProt P11021)", "assay": "co-IP; GRP78 antibodies, cytoplasmic and nuclear extracts of 22Rv1 cells, immunoblot for GRP78, SIAH2 and AR-V7"}, "[3]": {"biological_target": "glucose-regulated protein 78kD (GRP78, also known as BiP) (human (endogenous in 22Rv1)) (UniProt P11021)", "assay": "co-IP; GRP78 antibody beads, 22Rv1 lysate (RIPA buffer), endogenous proteins, immunoblot for AR-FL and AR-V7; also cells exposed to rutaecarpine for 12 h (Figure 2H, interaction increased; its precipitating antibody is not stated)"}, "FLAG-GRP78 (human) [4]": {"biological_target": "FLAG-GRP78 (human) (UniProt P11021)", "assay": "co-IP; FLAG-tag antibodies, HEK293T cells co-transfected for 48 h, immunoblot for HA or Myc and FLAG"}, "[5]": {"biological_target": "Androgen receptor splice variant 7 (AR-V7) (human (endogenous in 22Rv1)) (UniProt P10275)", "assay": "co-IP; AR-V7 antibodies, cytoplasmic and nuclear extracts of 22Rv1 cells, immunoblot for GRP78, SIAH2 and AR-V7"}, "[6]": {"biological_target": "Androgen receptor splice variant 7 (AR-V7) (human (endogenous in 22Rv1)) (UniProt P10275)", "assay": "co-IP; AR-V7 antibody or control IgG on Dynabeads, 22Rv1 lysate (RIPA buffer), 4 °C 1 h, washed with PBS-T; endogenous proteins, immunoblot"}, "[7]": {"biological_target": "Androgen receptor splice variant 7 (AR-V7) (human (endogenous in 22Rv1)) (UniProt P10275)", "assay": "co-IP; cells overexpressing GRP78 (Figure S3A; legend, cells and antibodies not shown)"}, "FLAG-GRP78 (human) [8]": {"biological_target": "FLAG-GRP78 (human) (UniProt P11021)", "assay": "co-IP; FLAG-tag antibodies, HEK293T cells co-transfected for 48 h, immunoblot for HA or Myc and FLAG", "remark": "listed apart in the source"}}, "note": "Where two headings read alike, the source gives them in different places. Results are given in words; binding and its absence hold for the method and conditions named. Binding seen in cells or lysates may run through a third protein. Some entries that bind do so weakly or less than the wild type. For some of these results: Where a sequence is shown, tags or fusion partners need not be part of it."}
{"molecule": "STUB1/CHIP (from UniProt Q9UNE7 1-303) (enzyme)", "values": [{"measurement": "binding", "setting": "[1]", "result": "no binding"}]}
{"molecule": "MDM2 (from UniProt Q00987 1-491) (enzyme)", "values": [{"measurement": "binding", "setting": "[1]", "result": "no binding"}]}
{"molecule": "Androgen receptor splice variant 7 (AR-V7) (from UniProt P10275-3 1-644)", "values": [{"measurement": "binding", "setting": "[2]", "result": "binds"}, {"measurement": "binding", "setting": "[3]", "result": "binds"}]}
{"molecule": "androgen receptor, AR-FL (from UniProt P10275 1-920)", "values": [{"measurement": "binding", "setting": "[3]", "result": "binds weakly"}]}
{"molecule": "HA-AR-V7 WT (from UniProt P10275-3 1-644)", "values": [{"measurement": "binding", "setting": "FLAG-GRP78 (human) [4]", "result": "binds"}]}
{"molecule": "glucose-regulated protein 78kD (GRP78, also known as BiP) (from UniProt P11021 19-654)", "values": [{"measurement": "binding", "setting": "[5]", "result": "binds"}, {"measurement": "binding", "setting": "[6]", "result": "binds"}]}
{"molecule": "siah E3 ubiquitin protein ligase 2 (SIAH2) (enzyme, UniProt O43255 1-324) MSRPSSTGPSANKPCSKQPPPQPQHTPSPAAPPAAATISAAGPGSSAVPAAAAVISGPGGGGGAGPVSPQHHELTSLFECPVCFDYVLPPILQCQAGHLVCNQCRQKLSCCPTCRGALTPSIRNLAMEKVASAVLFPCKYATTGCSLTLHHTEKPEHEDICEYRPYSCPCPGASCKWQGSLEAVMSHLMHAHKSITTLQGEDIVFLATDINLPGAVDWVMMQSCFGHHFMLVLEKQEKYEGHQQFFAIVLLIGTRKQAENFAYRLELNGNRRRLTWEATPRSIHDGVAAAIMNSDCLVFDTAIAHLFADNGNLGINVTISTCCP", "values": [{"measurement": "binding", "setting": "[5]", "result": "binds"}, {"measurement": "binding", "setting": "[2]", "result": "binds"}, {"measurement": "binding", "setting": "[1]", "result": "binds"}, {"measurement": "binding", "setting": "[7]", "result": "binds"}]}
{"molecule": "Myc-SIAH2 (enzyme, UniProt O43255 1-324) MSRPSSTGPSANKPCSKQPPPQPQHTPSPAAPPAAATISAAGPGSSAVPAAAAVISGPGGGGGAGPVSPQHHELTSLFECPVCFDYVLPPILQCQAGHLVCNQCRQKLSCCPTCRGALTPSIRNLAMEKVASAVLFPCKYATTGCSLTLHHTEKPEHEDICEYRPYSCPCPGASCKWQGSLEAVMSHLMHAHKSITTLQGEDIVFLATDINLPGAVDWVMMQSCFGHHFMLVLEKQEKYEGHQQFFAIVLLIGTRKQAENFAYRLELNGNRRRLTWEATPRSIHDGVAAAIMNSDCLVFDTAIAHLFADNGNLGINVTISTCCP", "values": [{"measurement": "binding", "setting": "FLAG-GRP78 (human) [8]", "result": "binds"}]}
